Results taken from PMC5680924.
Changes are numbered by the printed parent chain. No constants are given. Whether binding was seen depends on the method and setting. Binding seen in cells or lysates may run through a third protein. Some entries that bind do so weakly or less than the wild type. For some of these results: Sequences can lack the tags named with a protein.

Amino acid sequences for entries named in this document (tags omitted).
UniProt O00429: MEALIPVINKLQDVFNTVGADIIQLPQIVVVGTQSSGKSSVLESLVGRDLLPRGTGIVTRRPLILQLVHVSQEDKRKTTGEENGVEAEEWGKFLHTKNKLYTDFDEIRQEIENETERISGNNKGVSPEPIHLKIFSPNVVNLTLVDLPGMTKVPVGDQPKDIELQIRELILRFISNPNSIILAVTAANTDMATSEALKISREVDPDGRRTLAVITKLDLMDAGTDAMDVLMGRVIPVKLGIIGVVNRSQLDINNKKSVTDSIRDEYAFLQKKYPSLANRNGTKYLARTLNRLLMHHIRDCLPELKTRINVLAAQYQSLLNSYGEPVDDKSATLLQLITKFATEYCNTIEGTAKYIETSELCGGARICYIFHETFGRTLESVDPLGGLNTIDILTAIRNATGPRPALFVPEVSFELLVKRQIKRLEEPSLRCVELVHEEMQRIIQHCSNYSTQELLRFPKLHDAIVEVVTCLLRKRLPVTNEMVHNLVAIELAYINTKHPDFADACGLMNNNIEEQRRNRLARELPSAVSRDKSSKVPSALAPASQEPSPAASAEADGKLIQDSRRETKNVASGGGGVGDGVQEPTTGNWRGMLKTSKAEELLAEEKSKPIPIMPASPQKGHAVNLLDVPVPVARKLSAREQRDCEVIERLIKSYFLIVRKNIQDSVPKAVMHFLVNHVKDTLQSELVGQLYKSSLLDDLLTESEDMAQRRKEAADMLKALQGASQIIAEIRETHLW

T1: GST-tagged GBP2 (human) (UniProt P32456)
T1 sequence: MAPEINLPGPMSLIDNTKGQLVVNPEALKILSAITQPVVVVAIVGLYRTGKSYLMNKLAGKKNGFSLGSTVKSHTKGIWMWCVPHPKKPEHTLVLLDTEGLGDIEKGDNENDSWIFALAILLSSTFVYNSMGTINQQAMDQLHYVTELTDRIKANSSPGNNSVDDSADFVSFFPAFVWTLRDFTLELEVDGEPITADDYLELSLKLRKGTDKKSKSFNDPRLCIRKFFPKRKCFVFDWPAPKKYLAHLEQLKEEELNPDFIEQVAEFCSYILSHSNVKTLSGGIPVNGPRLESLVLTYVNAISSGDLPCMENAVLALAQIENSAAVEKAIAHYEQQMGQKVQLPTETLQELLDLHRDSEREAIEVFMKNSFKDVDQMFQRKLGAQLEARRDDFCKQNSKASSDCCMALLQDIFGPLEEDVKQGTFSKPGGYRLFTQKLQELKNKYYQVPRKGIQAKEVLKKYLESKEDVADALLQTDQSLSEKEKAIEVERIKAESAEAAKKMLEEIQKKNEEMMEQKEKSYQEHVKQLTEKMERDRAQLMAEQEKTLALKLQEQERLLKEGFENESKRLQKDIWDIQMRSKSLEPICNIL

T2: Flag-GBP2^K51A (human) (UniProt P32456)
T2 sequence: T1 sequence with K51A

T3: Flag-tagged guanylate-binding protein 1 (GBP1) (human) (UniProt P32455)
T3 sequence: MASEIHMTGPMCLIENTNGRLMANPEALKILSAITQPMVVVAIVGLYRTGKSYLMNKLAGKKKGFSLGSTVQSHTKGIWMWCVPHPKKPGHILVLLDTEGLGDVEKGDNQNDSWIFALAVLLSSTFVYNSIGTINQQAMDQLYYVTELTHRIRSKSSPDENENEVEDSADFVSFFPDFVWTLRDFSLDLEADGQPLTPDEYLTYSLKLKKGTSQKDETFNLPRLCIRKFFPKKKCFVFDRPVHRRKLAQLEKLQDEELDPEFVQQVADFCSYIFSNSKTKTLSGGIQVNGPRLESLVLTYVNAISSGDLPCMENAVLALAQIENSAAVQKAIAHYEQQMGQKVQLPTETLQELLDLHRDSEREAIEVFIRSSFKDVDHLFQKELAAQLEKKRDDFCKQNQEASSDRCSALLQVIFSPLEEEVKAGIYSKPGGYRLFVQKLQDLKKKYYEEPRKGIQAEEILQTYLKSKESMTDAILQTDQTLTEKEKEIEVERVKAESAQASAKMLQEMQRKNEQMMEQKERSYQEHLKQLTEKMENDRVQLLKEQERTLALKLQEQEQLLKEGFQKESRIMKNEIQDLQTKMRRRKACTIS

T4: Flag-GBP2^D103L/D108L (human) (UniProt P32456)
T4 sequence: T1 sequence with D103L, D108L

T5: Flag-tagged guanylate-binding protein 2 (GBP2) (human) (UniProt P32456)
T5 sequence: T1 sequence

T6: IFN-γ-induced endogenous GBP2 (human (endogenous in MDA-MB-231)) (UniProt P32456)
T6 sequence: T1 sequence

B1: IFN-γ-induced endogenous GBP2 (protein, UniProt P32456 1-591)
chain: T1 sequence

Key:
GST-tagged GBP2 (human) = biological target: T1, GST-tagged GBP2 (human); experiment: pull-down; GST or GST-GBP2 bound to resin, incubated with MDA-MB-231 cell lysate overnight, washed with RIPA buffer; western blot with anti-Drp1; only the target purified
Flag-GBP2^K51A (human) = biological target: T2, Flag-GBP2^K51A (human); experiment: co-IP; anti-Flag antibody and Protein G-agarose on lysates of transfected breast cancer cells (MDA-MB-231); lysis buffer with 1.5% n-dodecyl-b-d-maltopyranoside, 4 °C overnight; western blot for Drp1
[1] = biological target: T3, Flag-tagged guanylate-binding protein 1 (GBP1) (human); experiment: as above
[2] = biological target: T4, Flag-GBP2^D103L/D108L (human); experiment: as above
[3] = biological target: T5, Flag-tagged guanylate-binding protein 2 (GBP2) (human); experiment: as above
[4] = biological target: T6, IFN-γ-induced endogenous GBP2 (human (endogenous in MDA-MB-231)); experiment: co-IP; IFN-γ-treated MDA-MB-231 cell lysates, anti-GBP2 or anti-Drp1 antibody, Protein G-agarose; rabbit IgG as control
[5] = biological target: dynamin-related protein 1 (Drp1), endogenous (human (endogenous in MDA-MB-231)) (UniProt O00429); experiment: as above

| Molecule | binding (GST-tagged GBP2 (human)) | binding (Flag-GBP2^K51A (human)) | binding [1] | binding [2] | binding [3] | binding [4] | binding [5] |
| --- | --- | --- | --- | --- | --- | --- | --- |
| dynamin-related protein 1 (Drp1), endogenous (from UniProt O00429 1-736) | binds | no binding | no binding | binds | binds | binds |  |
| B1 |  |  |  |  |  |  | binds |
